Measured values from PubChem BioAssay AID1508624 (National Center for Advancing Translational Sciences (NCATS), 2021).
Among all 48,000 compounds or so, about 120 (0.25%) were called active. About 4% were inconclusive and are not listed. Calls follow the shape of the dose curve; as a rule, active = well fitted activation curve with a large enough effect; inconclusive = small, poorly fitted or top-dose-only effect, or another doubt; inactive = no such curve, though single readings can be large or run the other way. Some of the results follow.

test: Primary qHTS for Identification of Small Molecule Activators of Huntingtin-Antisense Promoter Activity; details: HEK293 HTT-AS promoter firefly luciferase reporter, 24 h; series mostly up to 57.5 µM; activity change, positive = activation: at the top concentration; also: nearly all actives have a fitted effect of over 55% in size
Method in brief: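 HEK293 luciferase promoter-reporter cells (2,500/well) plated 24 h, then compounds added at up to 57.5 uM final for 24 h at 37 °C. Firefly luminescence by Dual-Glo, normalized to vehicle (0%) and zero RLU (-100%).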

Activity change, positive = activation, inactive:
CCOc1ccc(NC(=O)c2c(NCc3ccc(C)o3)sc3c2CCCCC3)cc1 -9.06%, CCn1cc(C(=O)OCC(=O)Nc2cc(OC)cc(OC)c2)c(=O)c2ccc(C)nc21 -11.7%, Cc1ccc(CNC(=O)CN2C(=O)CSc3ccc(S(=O)(=O)N(C)C)cc32)cc1 -4.5%, Cc1ccc(CSC2=Nc3ccccc3C3=NC(CC(=O)NCc4cccs4)C(=O)N23)c(C)c1 (stereo unspecified) 6.67%, CCCCNS(=O)(=O)c1ccc(N2CCCCS2(=O)=O)cc1 -18.4%, O=C(Nc1ccc2nc(SCCOc3ccccc3)sc2c1)c1ccccc1F 4.58%, CCOC(=O)c1c(C)c(-c2ccccc2)n(CC(=O)Nc2ccc(OCC)cc2)c1C -2.96%, COc1ccc(-c2cn3c(n2)sc2cc(C(=O)Nc4cccc(SC)c4)ccc23)cc1 -3.33%, CCc1ccc(N(CC)C(=O)CCn2cnc3onc(-c4ccc(F)cc4)c3c2=O)cc1 -39%, COc1ccccc1-c1noc(-c2ccc(N3CCN(C)CC3)c([N+](=O)[O-])c2)n1 -27.3%, Cc1ccc(-c2ccc(=O)n(CC(=O)NCCc3ccc(Cl)cc3)n2)cc1 -12.3%, COC(=O)C(CCSC)NC(=O)Cn1ncc2c([nH]c3ccccc32)c1=O (stereo unspecified) -5.03%, COc1ccc(NC(=O)c2c(NCc3cccs3)sc3c2CCCC3)c(OC)c1 -24.3%, CCCOc1ccc(CNC(=O)c2ccc3c(c2)N(Cc2ccccc2)CCS3)cc1 -25.9%, COc1cccc2c1cc1c(=O)n(CC(=O)N3CCN(c4cccc(Cl)c4)CC3)nc(C)n12 0.294%, Cc1ccc(CNC(=O)CN2C(=O)CSc3c2c(C)nn3-c2ccccc2)cc1 -0.714%, COc1ccc(NC(=O)c2oc3ccccc3c2NC(=O)Cc2coc3cc(C)ccc23)cc1 28.2%, COc1ccc(C)cc1NC(=O)CCNC(=O)Cn1ccc2ccccc2c1=O 7.79%, CN1C(=O)Cc2cc(S(=O)(=O)CCC(=O)Nc3ccc(Cl)c(C(F)(F)F)c3)ccc21 -19.7%, COCCCn1c(=N)c(C(=O)NCc2cccnc2)cc2c(=O)n3cccc(C)c3nc21 -16.4%, CCOC(=O)c1c(C)[nH]c(CCC(=O)NCc2cccc(C)c2)c1C -10.2%, COc1ccc(C2=C(C)C(=NCCCN3CCN(c4cc(Cl)ccc4C)CC3)NS2(=O)=O)cc1 -40.5%, Cc1ccc(NC(=O)Cn2cc(S(=O)(=O)Cc3cccc(Cl)c3)c3ccccc32)cc1C -28.8%, COc1ccc(-n2ncc(C(=O)Nc3ccc4c(c3)OCO4)c2C2CCN(C(=O)OC(C)(C)C)CC2)cc1 8.26%, COc1ccc2oc(-c3ccc(C)c(NC(=O)c4ccc5c(c4)OCCO5)c3)nc2c1 3.21%, Cn1c(-c2ccccc2)cnc1NCc1ccccc1O -2.83%, O=C(NCc1ccccc1Br)c1ccc2c(c1)nc1n2CCOC1 3.83%, O=C(CCC1N=C2c3ccccc3N=C(SCc3ccccc3F)N2C1=O)NCc1ccccc1 (stereo unspecified) 28.5%, CCCNC(=O)COCc1cc(-c2ccc(F)cc2)on1 -1.44%, Cc1cc(OCC(=O)Nc2c(C(=O)c3ccccc3)oc3ccccc23)cc(C)c1Cl 6.68%, CCN1CCN(CCCNC(=O)c2cnn(-c3ccccc3Cl)c2C2CCN(C(=O)OC(C)(C)C)CC2)CC1 -13.1%, CCOC(=O)C1CCCN(c2c(C(=O)c3ccc(OCC)cc3)cnc3ccccc23)C1 (stereo unspecified) -22.9%, CC(C)CN(CCCNC(=O)c1cc(-c2cccs2)nc2ccccc12)CC(C)C -15.3%, Cc1nn(C)c2c1c(-c1ccccc1)cc(=O)n2Cc1ccccc1C#N -33.1%, Cc1cc(F)ccc1NC(=O)C1CCN(C(=O)c2cnn(-c3ccccc3)c2-n2cccc2)CC1 -19.7%, CCCCCCCCCCCCCC(=O)N[C@H](CO)[C@H](O)c1ccc([N+](=O)[O-])cc1 0.538%, O=C(CCC1N=C2c3ccccc3N=C(SCc3cccc(F)c3)N2C1=O)NCCc1ccccc1 (stereo unspecified) -28.5%, O=C(c1ccccc1)c1cn(Cc2ccc(F)cc2)c2ccccc2c1=O -26.7%, CCCCc1nn2c(=O)cc(COC(=O)c3cccc(Cl)c3)nc2s1 -4.92%, Cc1cccc(C)c1NC(=O)Cn1nnc(C(=O)Nc2c(C)cccc2C)c1N -20.9%, CCCSc1nc(-c2ccc(OC)cc2)cc(-c2ccccc2OC)c1C#N 2.02%, Cc1cccc(C)c1NC(=O)CN(Cc1ccc(Br)cc1)S(=O)(=O)c1ccccc1 -35.6%, COc1ccc(Br)cc1CNC(=O)c1cc(=O)[nH]c2ccc(S(=O)(=O)N3CCCCC3)cc12 -12%, COc1ccc(Cl)cc1Nc1cc(C)nc2nc(-c3ccccc3C)nn12 -1.58%, CN(C)c1ccc(C(CNC(=O)c2cccc(C(F)(F)F)c2)N2CCCC2)cc1 (stereo unspecified) -22.6%, CCOc1ccc(NC(=O)C2CCN(S(=O)(=O)c3c(C)noc3/C=C/c3c(C)cc(C)cc3C)CC2)cc1 10.6%, CCCCCCCC/C=C\CCCCCCCCN -6.59%, CN(C)[C@@H](CCOc1cccc2ccccc12)c1ccccc1, CCCC(=O)Nc1cccc(-c2cn3cccnc3n2)c1 35.1%, Cc1ccc(CNc2ncnc3c2c(-c2ccccc2)cn3-c2ccccc2)cc1 -14%, CCOC(=O)c1ccc(NS(=O)(=O)c2ccc3c(c2)OCCO3)cc1 -34.3%, O=C(Nc1ccc(Cl)c(C(F)(F)F)c1)c1ccc2c(c1)CCN2S(=O)(=O)c1ccccc1 -44.8%, COc1ccc(NC(=O)CN2C(=O)CSc3ccc(S(=O)(=O)N(C)C)cc32)cc1Cl -17%, Cc1ccccc1Cn1nnc2c(=O)[nH]c(C3CCN(C(=O)c4ccccc4Cl)CC3)nc21 -16.4%, COc1ccc(NC(=O)C2CCN(C(=O)N3CCOc4ccccc43)CC2)cc1 -12.3%, Cc1ccc2occ(CC(=O)Nc3ccc(S(=O)(=O)N4CCCC(C)C4)cc3)c2c1 (stereo unspecified) -18.9%, Cc1ccc(-n2ncc(C(=O)NCc3ccccn3)c2C2CCN(C(=O)OC(C)(C)C)CC2)c(C)c1 -15.6%, COc1ccc(CNC(=O)CCCn2c(=O)c3cccn3c3ccc(F)cc32)cc1OC -5.39%, COc1ccc(-c2noc(N3CCC(C(=O)Nc4ccc(OC)c(OC)c4)CC3)n2)cc1 -70.9%, O=c1c2cc3c(cc2n(Cc2ccccc2)c(=O)n1Cc1nc(-c2ccccc2)no1)OCO3 -11.1%, COc1ccc(NC(=O)N2CCN(S(=O)(=O)c3ccc4c(ccn4C)c3)CC2)cc1OC -2.47%, CCC1CN(C(=O)NCc2ccccc2)c2cc(C)ccc2O1 (stereo unspecified) -17.8%, COCCCNC(=O)C(C)n1c2ccccc2c2cnn(C)c(=O)c21 (stereo unspecified) -9.49%, Cc1ccc(NC(=O)Cn2c(=O)ccc3cc(S(=O)(=O)N4CCC(C)CC4)ccc32)c(C)c1 -37.9%, CCOC(=O)c1cc2c(=O)n3ccccc3nc2n(C)c1=NC(=O)c1c(-c2ccccc2Cl)noc1C 6.5%, COc1ccc(-n2cc(C(=O)Nc3cc(F)ccc3F)c3ccccc3c2=O)cc1 -22.7%, O=C(Nc1ccc(F)cc1F)c1ccc2c(c1)CCN2S(=O)(=O)c1ccc(Cl)cc1 -12%, CCOc1ccc(CNC(=O)Cn2ccc3cc(S(=O)(=O)N4CCCCCC4)ccc32)cc1 -23.5%, CCCCOC(=O)c1ccc(NC(=O)CC2NCCNC2=O)cc1 (stereo unspecified) 3.22%, COCCCNC(=O)C1CCC(CNS(=O)(=O)c2ccc(OC)cc2)CC1 (stereo unspecified) -6.83%, COc1cccc(CNC(=O)C2CCN(Cc3cc4ccccc4n3Cc3ccc(C)cc3)CC2)c1 -23.7%, COc1cc(-c2cc3n(C)c(C)c(CCC(=O)NCc4ccccc4)c(=O)n3n2)cc(OC)c1OC -2.45%, CCCC(CCC)C(=O)O, COc1ccc(OC)c(CCNC(=O)Cn2ccc3cc(S(=O)(=O)N4CCCCC4)ccc32)c1 -31.4%, CCN(CC)c1ccc(NC(=O)c2sc3ccccc3c2Cl)cc1 22%, CC(C)[N+](C)(C)CC(O)COc1cccc2ccccc12 (stereo unspecified) -12.9%, COc1ccc(OC)c(-c2noc(N3CCN(c4cc(C)ccc4C)CC3)n2)c1 -39.7%, CCCn1c(=N)c(C(=O)NCc2cccnc2)cc2c(=O)n3ccccc3nc21 -2.5%, COc1ccc(NC(=O)C(Cc2ccccc2)NS(=O)(=O)c2ccc3c(c2)CCN3C(C)=O)cc1 (stereo unspecified) 17.1%, CCOC(=O)c1cc(OC(=O)c2ccc(OC)cc2)n(-c2ccccc2)n1 -8.7%, Cc1ccc(C)c(CNC(=O)c2ccc3c(c2)nc2n3CCC(C)C2)c1 (stereo unspecified) 19.1%, COc1ccccc1-c1cc2nc(C)c(CCC(=O)NCCc3ccc(SC)cc3)c(C)n2n1 -74%, Cc1ccc(N(C)S(=O)(=O)c2nnc(NC(=O)CC(C)C)s2)cc1 -5.69%, CCOC(=O)Cc1ccc(NC(=O)Nc2cc3c(cc2N2CCCCC2)n(C)c(=O)n3C)cc1 -19.4%, CN(C)CCCC1(c2ccc(F)cc2)OCc2cc(C#N)ccc21 (stereo unspecified) -49%, Cn1nc(C(=O)NCc2ccc(F)cc2)c2c1-c1ccccc1SC2 2.48%, CC1CCN(C(=O)CN2c3ccc(C(C)C)cc3-c3ccccc3S2(=O)=O)CC1 17.4%, Cc1cc(-c2ccccc2)n2nc(-c3cccc(Br)c3)cc2n1 3.32%, COc1ccc(/C(C)=C/C(=O)O)c(OC)c1 3.26%, Cc1ccc(-c2c(C(=O)NCc3ccc(F)cc3)oc(=O)c3ccccc23)cc1 -16.9%, CC(=O)c1cccc(NC(=O)c2oc(=O)c3ccccc3c2-c2ccccc2)c1 -3.58%, Cc1ccccc1NC(=O)Cn1c(=O)n(Cc2ccc3c(c2)OCO3)c(=O)c2ccc(C(=O)NC3CCCCC3)cc21 -20.7%, CC(C)CN(CCNC(=O)c1cn(C)c2ccc(S(=O)(=O)N3CCOCC3)cc2c1=O)CC(C)C -1.17%, CSCCC(NS(=O)(=O)c1ccc2c(c1)oc(=O)n2C)C(=O)NCc1ccccc1 (stereo unspecified) -2.97%, Cc1ccc2cccc(NC(=O)c3ccc(-c4cccc(Cl)c4Cl)o3)c2n1 -1.97%, COc1ccc(CCCc2nnc(SCC(=O)Nc3ccc(F)cc3)o2)cc1C 9.22% [at 11.5 µM, percent change from vehicle, -100% = no light]
